Assay results: publication PMC9505218, “Nitrostilbenes: Synthesis and Biological Evaluation as Potential Anti-Influenza Virus Agents” (Pharmaceuticals, 2022)

System: viral nucleoprotein (NP) nuclear-cytoplasmic traffic
Experiment: Immunofluorescence analysis of viral nucleoprotein localisation

SMILES | localisation of viral NP
O=[N+]([O-])c1ccc(/C=C/c2ccc(O)cc2)cc1 [Compound 7] | retain viral NP in the nucleus
O=[N+]([O-])c1ccc(/C=C/c2ccc(O)c(Cl)c2)cc1 [Compound 6] | retain viral NP in the nucleus
